According to PubChem BioAssay AID488969 (Vanderbilt High Throughput Screening Facility, 2010):
The full ranking holds about 110,000 compounds; the median of “z-score” is about -0.1, and the highest 2% start at about 2. The list shows a part of the results. Active and inactive are the calls of the source.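 Rule for the calls: active = z-score in the third read window above 3 or below -3; inactive = the rest.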 Non-standard residues stand in square brackets, D forms with d. Residues, ends and D or L forms follow the SMILES beside them. ξ: configuration not given here. ξV = CC(C)C(N)C(=O)O

Target: Metabotropic glutamate receptor 8 (Rattus norvegicus) (UniProt P70579)
Chain of UniProt P70579 (P70579 whole entry, looked up): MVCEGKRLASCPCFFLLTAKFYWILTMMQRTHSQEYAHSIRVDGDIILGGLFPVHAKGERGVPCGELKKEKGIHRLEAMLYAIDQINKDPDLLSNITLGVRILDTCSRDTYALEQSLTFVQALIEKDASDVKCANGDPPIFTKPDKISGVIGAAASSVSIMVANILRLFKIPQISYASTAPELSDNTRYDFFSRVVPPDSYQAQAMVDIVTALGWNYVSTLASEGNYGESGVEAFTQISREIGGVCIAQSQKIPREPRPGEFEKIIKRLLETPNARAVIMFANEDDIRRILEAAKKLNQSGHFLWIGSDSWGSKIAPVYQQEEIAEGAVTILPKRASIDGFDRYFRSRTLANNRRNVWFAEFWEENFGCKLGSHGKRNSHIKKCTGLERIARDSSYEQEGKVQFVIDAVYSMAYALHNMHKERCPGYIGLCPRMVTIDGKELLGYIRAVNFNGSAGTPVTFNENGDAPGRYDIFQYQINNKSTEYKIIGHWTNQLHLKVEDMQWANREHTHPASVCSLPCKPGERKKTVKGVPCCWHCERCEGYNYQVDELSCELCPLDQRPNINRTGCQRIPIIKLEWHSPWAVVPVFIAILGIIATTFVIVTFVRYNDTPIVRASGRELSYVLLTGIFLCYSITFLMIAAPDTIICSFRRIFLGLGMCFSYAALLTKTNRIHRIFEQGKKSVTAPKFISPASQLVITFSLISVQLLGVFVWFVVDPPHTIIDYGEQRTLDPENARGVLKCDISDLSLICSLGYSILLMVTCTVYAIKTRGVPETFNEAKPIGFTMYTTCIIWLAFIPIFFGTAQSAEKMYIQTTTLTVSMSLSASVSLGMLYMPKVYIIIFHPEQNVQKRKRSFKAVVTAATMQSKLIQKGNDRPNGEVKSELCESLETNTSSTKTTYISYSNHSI
Test: rat mGluR8 modulators via GIRK flux, primary screen, cell-based, thallium flux, HTS (AID 488969)
Conditions: HEK293 rat mGluR8, GIRK (G protein-gated inwardly rectifying potassium channel) thallium flux, FluoZin2; at 10 µM; stronger effect = higher value; submaximal glutamate (EC20) added with thallium

| Structure (SMILES) | z-score |
| --- | --- |
| O=C(COc1ncnc2scc(-c3ccc(F)cc3)c12)NCc1ccco1 | -0.386 |
| CCCOC(=O)c1cc(-c2ccc(/C=C3/C(=O)N(C)C(=O)C(C#N)=C3C)o2)ccc1Cl | 0.0482 |
| CCOC(=O)C1CCCN(C(=O)c2cc3c(C)nc4ccccc4c3o2)C1 (centres undefined) | -0.243 |
| CCc1ccc(OCC(=O)NC(C)(C)C)cc1 | -0.166 |
| CCOc1ccc(NC(=O)CCCc2cc(-c3ccc(OCC)cc3)on2)cc1 | 0.253 |
| Cn1nc(CC(=O)NCc2cccc3ccccc23)c2ccccc2c1=O | -0.0446 |
| Cc1ccc2cc(C=O)c(N(C)C)nc2c1 | -0.118 |
| COc1ccc(OC)c2c1sc(=NC(=O)c1cccc(N3C(=O)CCC3=O)c1)n2C | -0.686 |
| CCS(=O)(=O)N1CCC(C(=O)NCCC2=CCCCC2)CC1 | -0.0774 |
| CCOC(=O)C1CCN(c2ncnc3c2[nH]c2cccc(OC)c23)CC1 | -1.12 |
| CCNC(=O)c1ccc(C2SCC(=O)N2Cc2ccco2)cc1 (centres undefined) | 0.887 |
| CC(=O)NC(C(=O)NCC(N)=O)C(C)C (centres undefined) (Ac-[ξV]-Gly-NH2) | -0.00315 |
| CN(C)/C=C(\C=N\OCc1ccc(Cl)cc1Cl)C(=O)Nc1ccc(Cl)c(Cl)c1 | -0.112 |
| O=C(CCSCc1cccc(Cl)c1)NCCc1ccc(Cl)cc1 | 1.66 |
| Cc1ccccc1Sc1c(C#N)c(-c2ccccc2)nn1C | -0.00458 |
| NC(=O)C[n+]1cccc2ccccc21 | -0.0719 |
| COC(=O)NC(=S)Nc1ccc(Oc2ccc(Cl)cc2)c(Cl)c1 | 1.29 |
| CCn1c(COc2ccccc2C)nc2ccccc21 | -1.56 |
| O=C(CN1CCCCC1)NC(=O)NCc1ccccc1 | -0.401 |
| Oc1c(CN2CCOCC2)cc(COCc2ccccc2)c2cccnc12 | 0.0807 |
| CCOC(=O)c1ccc(COC(=O)CCc2nc3ccccc3[nH]c2=O)o1 | -0.139 |
| CC(=O)Nc1ccccc1NS(=O)(=O)c1ccc(Cl)cc1 | -0.305 |

| Structure (SMILES) | z-score |
| --- | --- |
| O=C(c1ccc2snnc2c1)N1CCOCC1 | 0.617 |
| COc1ccc(-c2nc(SCC(=O)N3CCOCC3)n[nH]2)cc1 | -0.168 |
| COc1ccc(NS(=O)(=O)c2cc(NC(=O)c3ccco3)ccc2N2CCCCC2)cc1 | -0.189 |
| CCOCCCNC(=O)c1ccc(Br)cc1 | 0.881 |
| CCCOc1ccc(C(=O)NC(=S)Nc2nc(C)c(C(=O)N(C)C)s2)cc1 | 0.54 |
| COc1cccc(CNC(=O)Cc2c(C(=O)O)[nH]c3ccccc23)c1 | -0.0521 |
| Cc1cc(C)c2nc(-c3ccccn3)cc(C(=O)Nc3ccc(S(=O)(=O)Nc4cc(C)on4)cc3)c2c1 | -0.184 |
| Cc1ccsc1C(=O)OCC(=O)Nc1cccc(S(=O)(=O)N2CCOCC2)c1 | -0.329 |
| CN(CCc1ccccn1)C(=O)CN(C)S(=O)(=O)c1ccc2c(c1)c(=O)n(C)c(=O)n2C | 0.578 |
| Nc1ccc2oc(-c3cc(Br)ccc3Cl)nc2c1 | 0.186 |
| COC(=O)C1=C(C)N(C)C(=O)/C1=C\c1ccco1 | -0.144 |
| Cn1c(SCc2ccon2)nc2ccccc2c1=O | 0.107 |
| O=C(COC(=O)C1CCCCC1)NCCc1ccccc1 | 0.437 |
| c1ccc2c(CSc3nnc(-c4ccncc4)o3)cccc2c1 | -0.132 |
| Cc1ccc(CSCC(=O)N2CCN(c3ccccc3)CC2)cc1 | -0.305 |
| CCOC(=O)c1cccc(NC(=O)/C=C/c2cccc([N+](=O)[O-])c2)c1 | 0.839 |
| OCCN1CCN(C(=S)NCCc2ccccc2)CC1 | -0.025 |
| COC(=O)CSc1cc(C)nc2ccc(OC)cc12 | 0.41 |
| c1ccc(COc2ccc(OCCCN3CCCCC3)cc2)cc1 | 2.89 |
| COc1ccc(CN2C(=O)C(O)(CC(=O)c3ccc4c(c3)OCO4)c3ccccc32)cc1OC (centres undefined) | -0.536 |
| COc1cc(S(=O)(=O)NC2CCCC2)c(OC)cc1Cl | -0.256 |
| Nc1ccc(-c2cc(N)n(-c3ccccc3)n2)cc1 | 0.895 |

| Structure (SMILES) | z-score |
| --- | --- |
| CC(C)(C)C(=O)Oc1ccc2cc(-c3ccc4ccccc4n3)c(=O)oc2c1 | 0.505 |
| CCn1c(SCC(=O)N2c3ccccc3CCc3ccccc32)nnc1-c1ccc(OC)cc1 | -0.14 |
| Cc1cc(Cl)ccc1OCc1n[nH]c(=S)n1C1CCCCC1 | active: 7.67 |
| Cc1cc(C)c(S(=O)(=O)Nc2ccc3c(c2)CCC3)c(C)c1 | -0.0119 |
| O=C(Cc1coc2ccc3ccccc3c12)N1CCCC1 | 0.174 |
| CSc1nc2nc3c(c(=O)n2[nH]1)CCCC3 | 0.0334 |
| COc1ccc(C(=O)/C=C/c2ccc(OC3CSC3)cc2)cc1OC | -0.725 |
| CCOc1ccccc1NC(=O)c1ccc(Cl)c(NC(=O)CC(c2ccccc2)c2ccccc2)c1 | -0.336 |
| Cc1sc2ncnc(N(C)Cc3ccco3)c2c1C | 0.0956 |
| CCOC(=O)c1c(NC(=O)CN2CCCc3ccccc32)sc(C)c1C | -0.0988 |
| CCN(CC)S(=O)(=O)c1ccc(NC(=O)CSc2nnc(-c3cccc(OC)c3)n2C)cc1 | -1.33 |
| Cc1cccc(NC(=S)N/N=C/c2cccc([N+](=O)[O-])c2)c1 | 0.223 |
| COc1cccc(C(=O)Nc2ccc(N3CCCC3)cc2)c1 | -0.381 |
| N#CCCN(C(=O)CSc1nc(-c2ccccc2)cn1N)c1ccc(F)cc1 | -0.2 |
| COc1cccc(/C=C2\N=C(c3c(-c4ccccc4)noc3C)OC2=O)c1 | -0.0431 |
| Cc1cc(C(F)F)nn1CC(=O)NCc1ccccc1F | -0.531 |
| COc1cc(OC)c(OC)cc1/C=N/NC(=O)C[n+]1ccccc1 | 0.0607 |
| CC(C)Nc1nnc(SCC(=O)/C=C2\N(C)c3ccccc3C2(C)C)s1 | -0.538 |
| Cc1cccc2cc(C#N)c(SCC(=O)N3CC(=O)Nc4ccccc43)nc12 | -0.983 |
| Cc1sc2nc(C3CC3)nc(SCC(=O)N3CCCc4ccccc43)c2c1C | 0.307 |
| COc1ccc(N(CC(=O)N/N=C/c2cccc3c2OCCO3)S(=O)(=O)c2ccc(NC(C)=O)cc2)cc1 | 0.0269 |
| O=C(C1CCN(S(=O)(=O)c2cccnc2)CC1)N1CCN(c2cccc(Cl)c2)CC1 | -0.337 |

| Structure (SMILES) | z-score |
| --- | --- |
| O=C(CN1C2=NCCCN2c2ccccc21)c1cccc(Br)c1 | -0.104 |
| O=C(Cn1c(SCC(=O)N2CCCc3ccccc32)nc2ccccc21)N1CCCC1 | -0.116 |
| CCN(CC)c1ccc(C2C(C(C)=O)C(=O)CC(C)(O)C2C(C)=O)cc1 (centres undefined) | -0.172 |
| Cc1ccc(NS(=O)(=O)c2cc(C(=O)N3CCc4ccccc4C3)ccc2Cl)cc1 | -0.667 |
| CCOC(=O)CSc1nc2ccccc2n2cnnc12 | -0.0163 |
| CCCn1c(SCC(=O)Nc2nnc(-c3ccccc3)s2)nnc1-c1ccccn1 | -0.176 |
| Cc1[nH]c2c(Cl)cccc2c1CCNC(=O)C1CCCCC1C(=O)OCC(F)(F)F (centres undefined) | 0.00323 |
| O=C(NCC1CCCO1)C(=O)NCC(c1ccco1)N1CCN(c2ccc(F)cc2)CC1 (centres undefined) | -0.341 |
| Cc1ccc(CNC(=O)C2C3C=CC4(CN(Cc5cccnc5)C(=O)C24)O3)cc1 (centres undefined) | -0.0986 |
| COCCNC(=O)c1ccc(NS(=O)(=O)c2cc(C)ccc2C)cc1 | 0.582 |
| O=C(NCCN1CCOCC1)c1ccc(CS(=O)(=O)c2ccc(Br)cc2)o1 | -0.159 |
| Oc1ccc(Cl)cc1C1=Nc2ccccc2N=C(c2ccco2)C1 | 1.79 |
| Cc1ncc(CO)c(/C=N/NC(=O)c2ccccc2Br)c1O | 0.871 |
| COc1ccc(S(=O)(=O)N(CC(=O)N2CCN(C)CC2)c2ccc(C)cc2)cc1OC | 0.277 |
| CCC(CC)c1nnc(NS(=O)(=O)Cc2ccccc2)s1 | 0.839 |
| CCCOc1ccc(OCCSc2ncccn2)cc1 | 0.313 |
| O=C(OCC(=O)c1ccc(S(=O)(=O)N2CCCC2)cc1)C1=COCCO1 | -0.209 |
| CCOC(=O)c1c(C)nc2c3ccccc3ccn12 | -0.389 |
| Cc1nc(NC(=O)COC(=O)CCS(=O)(=O)c2ccccc2Cl)c(Cl)cc1Cl | -1.69 |
| O=C(Nc1ccc(-c2nnc(-c3ccco3)o2)cc1)C(c1ccccc1)c1ccccc1 | -0.0515 |
| Cc1ccc2ncnc(Nc3ccc(C)c(C)c3)c2c1 | -0.233 |
| Cc1ccc(C2CC(=O)c3cnn(-c4nc(C)cc(C)n4)c3C2)cc1 (centres undefined) | -0.203 |

| Structure (SMILES) | z-score |
| --- | --- |
| CCC(C)(C(=O)NC1CCCCC1)N(C)C(=O)c1ccccn1 (centres undefined) | -0.131 |
| COc1ccc(NC(=O)Nc2cc(C)ccc2OC)cc1 | 2.83 |
| COc1ccccc1N1CCN(CCN2C(=O)CC(=C3c4ccccc4-c4ccccc43)C2=O)CC1 | 0.0153 |
| Cc1nc(SCC(=O)OCc2ccccc2)c(C#N)c(-c2ccccc2)c1C(=O)Nc1ccccc1 | -0.638 |
| CC(OC(=O)c1snc(C(=O)NC2CCCCC2)c1N)C(=O)NC(C)(C)C (centres undefined) | -0.0824 |
| CC1(C)Cc2c(cnn2-c2ccccc2)C(=O)/C1=N\NC(=O)c1ccccc1N | 0.229 |
| COc1ccc(C2CC(c3ccccc3)=NN2C(=O)CSc2ncccn2)cc1 (centres undefined) | -0.635 |
| NNC(=O)c1cnn(Cc2ccccc2)c1N | 0.0742 |
| Cc1ccc(S(=O)(=O)c2nc(-c3ccccc3)oc2NCc2cccnc2)cc1 | -2.37 |
| CCOP(=O)(c1ccccc1)C(O)c1ccc(Br)cc1 (centres undefined) | -0.115 |
| COc1ccc2[nH]cc(CCNC(=O)C3CCCNC3=O)c2c1 (centres undefined) | -0.00183 |
| CCCC(=O)c1cc(F)c(N2CCOCC2)cc1C | -0.198 |
| CCCCNC(=O)c1ccc(N2CCOCC2)c(NS(=O)(=O)c2ccc(OC)cc2)c1 | 0.358 |
| CCN1C(=O)C(CC(=O)Nc2ccc(Br)cc2)N(CCCc2ccccc2)C1=S (centres undefined) | -0.204 |
| COc1ccc(OC)c(NC(=O)C2CCCN(S(=O)(=O)c3cccc4nsnc34)C2)c1 (centres undefined) | 0.0355 |
| COc1ccc(N2C(=O)C3[C@@H](C2=O)C2(Cl)C(Cl)=C(Cl)C3(Cl)C2(OC)OC)cc1 (some centres undefined) | 0.105 |
| O=S(=O)(Nc1ccc2nc(-c3ccc(Br)o3)[nH]c2c1)c1ccccc1 | -0.849 |
| Cc1ccc(S(=O)(=O)Nc2ccc(-c3nc4cc(NS(=O)(=O)c5ccc(C)cc5)ccc4o3)cc2)cc1 | 0.0536 |
| c1ccc(-n2c(Cc3cn4ccsc4n3)nnc2N2CCOCC2)cc1 | -0.304 |
| COc1cc(NC(=O)Cc2c(C(=O)O)[nH]c3ccccc23)cc(OC)c1OC | -0.207 |
| CCc1cccc(NC(=O)Cc2cn(C)c3ccccc23)c1 | 0.717 |
